Paper PMC13083723 (Patterns, 2026)
Hit rate of the full screen: of about 5,400 compounds, about 190 (3.5%) showed an effect of 50% or more. This is one part of the list.

Tested on: Vero-E6
Test: primary screen, phospholipidosis by LipidTOX staining; higher = more effect of the substance
Conditions: 10 µM
Experimental: To measure drug-induced PLD in Vero-E6 cells, we used the HCS LipidTOX Red Phospholipidosis Detection Reagent (Invitrogen, #H34351), which is non-toxic to cell growth and remains well retained after aldehyde fixation. In this setup, compounds (at 10 μM concentration) and controls (amiodarone: 10 μM concentration; DMSO: 0.1 v/v %) were added to clear-bottom, 384-well plates (PhenoPlate 384-well, black, optically clear flat bottom, tissue-culture treated, Revvity #6057302) using the Echo Liquid Handler (Labcyte).

Structure (SMILES)	result_ITMP [%]
Cc1nc2cnc3ccc(C#Cc4cccnc4)cc3c2n1-c1ccc(C(C)(C)C#N)cc1	-2.17
C[C@H]1[C@H](C)CC[C@]2(C(=O)O)CC[C@]3(C)C(=CC[C@@H]4[C@@]5(C)CC[C@H](O)C(C)(C)[C@@H]5CC[C@]43C)[C@H]12	-0.84
Cc1cc(-c2nc(-c3ccc(OC(F)(F)F)cc3)no2)nn1Cc1ccnc(N2CCN(C3CC3)CC2)c1	-1.58
COC(=O)[C@H]1[C@H]2C[C@@H]3c4[nH]c5cc(OC)ccc5c4CCN3C[C@H]2C[C@@H](OC(=O)c2cc(OC)c(OC)c(OC)c2)[C@@H]1OC	43.5
COc1cc2c(cc1OC)-c1cc3ccc(OC)c(OC)c3c[n+]1CC2	-5.54
CC(C)C[C@H](NC(=O)[C@@H](O)[C@H](N)Cc1ccccc1)C(=O)O	-1.61
COc1cc([C@@H]2c3cc4c(cc3[C@H](O)[C@H]3COC(=O)[C@H]23)OCO4)cc(OC)c1OC	14.3
C=CCc1ccc(O)c(-c2ccc(O)c(CC=C)c2)c1	-3.16
O=P(O)(O)C(O)(Cc1cnc2ccccn12)P(=O)(O)O	6.24
O=C([O-])CCCO	-1.27
CCOC(=O)Nc1ccc2c(c1)N(C(=O)CCN1CCOCC1)c1ccccc1S2	-8.3
O=c1c(-c2ccc(O)cc2)coc2cc(O)cc(O)c12	-2.31
OCc1ccc(-c2ccc(-c3ccc(CO)s3)o2)s1	-3.85
Cc1cn(C2CC(N=[N+]=[N-])C(CO)O2)c(=O)[nH]c1=O (stereo not shown)	-4.18
N[C@H](Cc1ccccc1)C(=O)O	3.69
O=C(O)c1ccc(Nc2ncc3c(n2)-c2ccc(Cl)cc2C(c2c(F)cccc2F)=NC3)cc1	-2.95
Nc1c2c(nc3c1CCC3)CCCC2	-8.81
C[C@H](NC(=O)Cc1cc(F)cc(F)c1)C(=O)N[C@@H]1C(=O)N(C)c2ccccc2-c2ccccc21	-3.47
O=C(NOCCO)c1cc(CN2OCCCC2=O)c(F)c(F)c1Nc1ccc(I)cc1F	-1.3
CC(N)Cc1cccc(O)c1 (stereo not shown)	-6.46
O=[N+]([O-])c1ccc([As](=O)(O)O)cc1	-5.95
O=C(Nc1cc(Cl)cc(Cl)c1O)c1c(O)c(Cl)cc(Cl)c1Cl	-8.29

Structure (SMILES)	result_ITMP [%]
Cc1nn(C)c2nc(NNC(=O)Nc3cc(Cl)nc(Cl)c3)cc(C(C)C)c12	1.13
C[C@@H](c1ncncc1F)[C@](O)(Cn1cncn1)c1ccc(F)cc1F	1.21
CN(C)NC(=O)CCC(=O)O	-1.95
O=c1[nH]c(=O)n([C@H]2CCCO2)cc1F	-4.71
CN[C@@H](C)[C@H]1[C@H](O)C[C@@]2(C)[C@@H]3CC[C@H]4C(C)(C)[C@@H](NC)CC[C@@]45C[C@@]35CC[C@]12C	8.26
CN1CCN(CCCN2c3ccccc3Sc3ccc(S(=O)(=O)N(C)C)cc32)CC1	50.3
CN(C)CCCNC(=O)c1ccc(-c2cc(O)c3ncccc3c2)cc1	-0.58
C[C@@H]1CC(=O)NN=C1c1ccc(NN=C(C#N)C#N)cc1	-4.23
COc1cccc(OC)c1-c1ccc(C[C@H](NC(=O)c2c(Cl)cccc2Cl)C(=O)O)cc1	-1.59
COc1ccc(-c2nc(C(=O)N3CCN(C)CC3)sc2-c2ccc(OC)cc2)cc1	2.32
CCN(C(C)=O)c1cccc(-c2ccnc3c(C#N)cnn23)c1	-1.2
CC(=O)Oc1cc(C(F)(F)F)ccc1C(=O)O	-2.73
N=c1ccn2c(n1)O[C@H]1[C@H](O)[C@@H](CO)O[C@H]12	0.88
CC(=O)Oc1c(C)cccc1C(=O)O	0.62
CCCCCCCC/C=C\CCCCCCCC(=O)NCc1ccc(O)c(OC)c1	-2.16
C[C@H](CCC(=O)O)[C@H]1CC[C@H]2[C@@H]3[C@H](O)C[C@@H]4C[C@H](O)CC[C@]4(C)[C@H]3CC[C@]12C	-4.84
O=c1[nH]cc(F)c(=O)[nH]1	-3.49
O=C1NCCNC1c1cccs1 (stereo not shown)	-5.38
NCCc1c[nH]c2ccc(O)cc12	-2.96
O=c1ncn2nc(Sc3ccc(F)cc3F)ccc2c1-c1c(Cl)cccc1Cl	-4.94
Cc1cncc(CN2CCC(=C3c4ccc(Cl)cc4CCc4cccnc43)CC2)c1	3.19
CS(=O)(=O)c1ccc([C@@H](O)[C@@H](CO)NC(=O)C(Cl)Cl)cc1	-7.96

Structure (SMILES)	result_ITMP [%]
CO/N=C(\C(=O)N[C@@H]1C(=O)N2C(C(=O)[O-])=C(C[n+]3ccn4ncccc43)CS[C@H]12)c1nsc(N)n1	-0.4
NS(=O)(=O)c1cc2c(cc1Cl)N=C(CSCc1ccccc1)NS2(=O)=O	-4.59
CCCCC(=O)OCC(=O)[C@]1(O)Cc2c(O)c3c(c(O)c2[C@@H](O[C@H]2C[C@H](NC(=O)C(F)(F)F)[C@H](O)[C@H](C)O2)C1)C(=O)c1c(OC)cccc1C3=O	1.73
CCC(COC(=O)c1cc(OC)c(OC)c(OC)c1)(c1ccccc1)N(C)C (stereo not shown)	3.57
Clc1ccc2c(c1)N=C(N1CCNCC1)c1ccccc1N2	77.7
CCOc1cc2ncc(C#N)c(Nc3ccc(OCc4cccc(F)c4)c(Cl)c3)c2cc1NC(=O)/C=C/CN(C)C	-0.47
CC(=O)OC/C=C(C)/C=C/C=C(C)/C=C/C1=C(C)CCCC1(C)C	-3.31
O=C(Cc1ccc(-c2ccccc2)cc1)Nc1ccccn1	-3.31
O=C1NC(=O)/C(=C/c2ccc(-c3ccc(F)cc3O)o2)S1	-1.97
CC(C)CCN1c2nc(Nc3cc(F)c(O)c(F)c3)ncc2N(C)C(=O)C1C (stereo not shown)	17.5
O=C(NC1Cc2ccccc2N(C[C@@H](O)CO)C1=O)c1cc2cc(Cl)sc2[nH]1 (stereo partly shown)	-3.43
CC[C@@H](c1ccc(F)c(F)c1)n1c(C(=O)OC)c(-c2ccno2)[nH]c1=S	-7.81
Cc1cnc(Nc2ccc(N3CCN(C)CC3)cc2)nc1Nc1cccc(S(=O)(=O)NC(C)(C)C)c1	21.8
CCC[C@H](N[C@@H](C)C(=O)N1[C@H](C(=O)O)C[C@@H]2CCCC[C@@H]21)C(=O)O	-15.7
CCC(c1ccc(O)cc1)C(CC)c1ccc(O)cc1 (stereo not shown)	-2.92
NC1(c2ccc(-c3nc4ccn5c(=O)[nH]nc5c4cc3-c3ccccc3)cc2)CCC1	87.1
CC(=O)O[C@]1(C(C)=O)CC[C@H]2[C@@H]3C=C(C)C4=CC(=O)CC[C@@H]4[C@H]3CC[C@@]21C	-8.69
COc1ccc(CCN(C)CCc2ccc(OC)c(OC)c2)cc1OC	-1.15
NC(=O)c1noc([C@H](CCCC2CCCCC2)CC(=O)NO)n1	-5.23
CC1(CN2CCC(n3c(=O)[nH]c4ccccc43)CC2)OCc2ccccc2-n2cccc21 (stereo not shown)	-1.56
CC(C)[C@@H]1CC[C@@H](C)C[C@H]1O	-7.25
CC[C@H](C)n1cc(C)c2c(C(=O)NCc3c(C)cc(C)[nH]c3=O)cc(-c3ccc(N4CCNCC4)nc3)cc21	-1.29

Structure (SMILES)	result_ITMP [%]
NC(N)=NCCC[C@@H](N)C(=O)N[C@@H](CCCN=C(N)N)C(=O)N1CCC[C@H]1C(=O)N1C[C@H](O)C[C@H]1C(=O)NCC(=O)N[C@@H](Cc1cccs1)C(=O)N[C@@H](CO)C(=O)N1Cc2ccccc2C[C@@H]1C(=O)N1[C@H](C(=O)N[C@@H](CCCN=C(N)N)C(=O)O)C[C@@H]2CCCC[C@@H]21	-1.28
CC(C)Oc1cccc(-n2c(CCc3c[nH]c4ccc(Br)cc34)nc3ccccc3c2=O)c1	-2.01
CC(C)(C)NCC(O)c1ccc(O)cc1Cl (stereo not shown)	-2.23
CC[C@@]1(O)C(=O)OCc2c1cc1n(c2=O)Cc2cc3cc(O)ccc3nc2-1	2.87
C=CCc1cc(OC)c(O)c(C(=O)NCCO)c1	-1.23
COc1ccc(C(=O)N2CCN(c3ccc4c(c3)CCC(=O)N4)CC2)cc1OC	1.75
CN(C)CCNc1nc2cc(O)ccc2c2c1C(=O)c1ccccc1-2	76.7
C#C[C@]1(O)CC[C@H]2[C@@H]3CCC4=CC(=O)CC[C@@H]4[C@H]3CC[C@@]21C	-5.93
C=C[C@H]1C[N@]2CC[C@H]1C[C@H]2[C@H](O)c1ccnc2ccccc12	2.46
O=C(O)CNC(=O)c1ccccc1	-2.08
COc1ccc2c(c1)/C(=C/c1cnc[nH]1)C(=O)N2	-0.89
CC(=O)N1CCN(c2ccc(OCC3CO[C@](Cn4ccnc4)(c4ccc(Cl)cc4Cl)O3)cc2)CC1 (stereo partly shown)	-2.23
Cc1ccc([N+](=O)[O-])cc1O	-3.44
C#C[C@]1(OC(C)=O)CC[C@H]2[C@@H]3CCC4=C[C@@H](OC(C)=O)CC[C@@H]4[C@H]3CC[C@@]21C	8.26
CC(C)[C@H](C(=O)Nc1ccc(C(=O)NO)cc1)c1ccccc1	-6.12
N[C@H]1CCN(O)C1=O	-8.51
Cc1cc(C)cc(C(=O)OC2CC3CCC(C2)N3C)c1 (stereo not shown)	32.8
COc1ccc([C@@H]2CNC(=O)C2)cc1OC1CCCC1	-0.04
COc1ccc(C[C@H]2NC[C@H](O)[C@H]2OC(C)=O)cc1	-2.85
Nc1ccc(S(=O)(=O)Nc2ncccn2)cc1	-3.05
Cc1c(C)c2c(c(C)c1O)CCC(C)(C)O2	-2.28
CCCC(C)NC(=O)c1ccc(Cl)c(Cl)c1 (stereo not shown)	-0.37
